# In the supplement of paper PMC8728848:
# The list shows a part of the results.
# Legend:
# Experiment in all cases: glycan array binding signal (z-score within array); higher = stronger binding
# Conditions in all cases: glycan notation: IUPAC condensed, linker removed
# Gal3S(b1-4)Glc = target: Gal3S(b1-4)Glc
# Method in brief: (§1)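 Negative Z-scores can be read as non-binding. The Z-score is calculated within each array and then averaged across arrays of one protein sequence at different concentrations or buffers and across linkers. Arrays, 3228 in all, were curated from the Consortium for Functional Glycomics database and kept only where the protein sequence was available.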
# Gal3S(b1-4)Glc6S = target: Gal3S(b1-4)Glc6S
# Method in brief: as §1
# Gal3S(b1-4)GlcNAc = target: Gal3S(b1-4)GlcNAc
# Method in brief: as §1
# [1] = target: Gal3S(b1-4)[Fuc(a1-3)]Glc6S
# Method in brief: as §1
# [2] = target: Gal3S(b1-4)[Fuc(a1-3)]GlcNAc
# Method in brief: as §1
# [3] = target: Gal3S(b1-4)[Fuc(a1-3)]GlcNAc6S
# Method in brief: as §1
# Gal3S4S(b1-4)GlcNAc = target: Gal3S4S(b1-4)GlcNAc
# Method in brief: as §1
# Gal3S6S(b1-4)GlcNAc = target: Gal3S6S(b1-4)GlcNAc
# Method in brief: as §1
# Gal3S6S(b1-4)GlcNAc6S = target: Gal3S6S(b1-4)GlcNAc6S
# Method in brief: as §1
# Gal4S(b1-4)GlcNAc = target: Gal4S(b1-4)GlcNAc
# Method in brief: as §1
# Gal4S6S(b1-4)GlcNAc = target: Gal4S6S(b1-4)GlcNAc
# Method in brief: as §1
# Gal6P(b1-4)GlcNAc = target: Gal6P(b1-4)GlcNAc
# Method in brief: as §1
# Gal6S(b1-3)GlcNAc = target: Gal6S(b1-3)GlcNAc
# Method in brief: as §1
# Gal6S(b1-3)GlcNAc6S = target: Gal6S(b1-3)GlcNAc6S
# Method in brief: as §1
# Gal6S(b1-4)Glc = target: Gal6S(b1-4)Glc
# Method in brief: as §1
# Gal6S(b1-4)Glc6S = target: Gal6S(b1-4)Glc6S
# Method in brief: as §1
# Gal6S(b1-4)GlcNAc = target: Gal6S(b1-4)GlcNAc
# Method in brief: as §1
# Gal6S(b1-4)GlcNAc6S = target: Gal6S(b1-4)GlcNAc6S
# Method in brief: as §1
# GalNAc(a1-3)Gal = target: GalNAc(a1-3)Gal
# Method in brief: as §1
# GalNAc(a1-3)GalNAc = target: GalNAc(a1-3)GalNAc
# Method in brief: as §1
# [4] = target: GalNAc(a1-3)GalNAc(a1-3)Gal(a1-4)Gal(b1-4)GlcNAc
# Method in brief: as §1
# [5] = target: GalNAc(a1-3)GalNAc(b1-3)Gal(a1-4)Gal(b1-4)Glc
# Method in brief: as §1
# GalNAc(b1-3)Gal = target: GalNAc(b1-3)Gal
# Method in brief: as §1
# [6] = target: GalNAc(b1-3)Gal(a1-4)Gal(b1-4)GlcNAc
# Method in brief: as §1
# [7] = target: GalNAc(b1-3)Gal(a1-4)Gal(b1-4)GlcNAc(b1-3)Gal(b1-4)Glc
# Method in brief: as §1
# [8] = target: GalNAc(b1-3)Gal(a1-6)Gal(b1-4)Glc
# Method in brief: as §1
# GalNAc(b1-3)GalNAc = target: GalNAc(b1-3)GalNAc
# Method in brief: as §1
# GalNAc(b1-3)GlcNAc = target: GalNAc(b1-3)GlcNAc
# Method in brief: as §1
# GalNAc(b1-4)Gal(b1-4)Glc = target: GalNAc(b1-4)Gal(b1-4)Glc
# Method in brief: as §1
# GalNAc(b1-4)GlcNAc = target: GalNAc(b1-4)GlcNAc
# Method in brief: as §1
# [9] = target: GalNAc(b1-4)GlcNAc(b1-2)Man
# Method in brief: as §1
# [10] = target: GalNAc(b1-4)GlcNAc(b1-2)Man(a1-3)[GalNAc(b1-4)GlcNAc(b1-2)Man(a1-6)]Man(b1-4)GlcNAc(b1-4)GlcNAc
# Method in brief: as §1
# [11] = target: GalNAc(b1-4)GlcNAc(b1-3)GalNAc(b1-4)GlcNAc
# Method in brief: as §1
# GalNAc(b1-4)GlcNAc6S = target: GalNAc(b1-4)GlcNAc6S
# Method in brief: as §1
# GalNAc(b1-6)GalNAc = target: GalNAc(b1-6)GalNAc
# Method in brief: as §1
# GalNAc3S(b1-4)GlcNAc = target: GalNAc3S(b1-4)GlcNAc
# Method in brief: as §1
# GalNAc3S(b1-4)GlcNAc3S = target: GalNAc3S(b1-4)GlcNAc3S
# Method in brief: as §1
binder,measurement,setting,value
"ECL (Erythrina cristagalli), Q6YD91 (protein) VETISFSFSEFEPGNNDLTLQGAAIITQSGVLQLTKINQNGMPAWDSTGRTLYTKPVHIWDMTTGTVASFETRFSFSIEQPYTRPLPADGLVFFMGPTKSKPAQGYGYLGVFNNSKQDNSYQTLAVEFDTFSNPWDPPQVPHIGIDVNSIRSIKTQPFQLDNGQVANVVIKYDASSKILLAVLVYPSSGAIYTIAEIVDVKQVLPEWVDVGLSGATGAQRDAAETHDVYSWSFHASLPETND",glycan array binding signal (z-score),Gal3S(b1-4)Glc,-0.22
same,glycan array binding signal (z-score),Gal3S(b1-4)Glc6S,-0.281
same,glycan array binding signal (z-score),Gal3S(b1-4)GlcNAc,-0.252
same,glycan array binding signal (z-score),[1],0.786
same,glycan array binding signal (z-score),[2],-0.248
same,glycan array binding signal (z-score),[3],-0.309
same,glycan array binding signal (z-score),Gal3S4S(b1-4)GlcNAc,-0.359
same,glycan array binding signal (z-score),Gal3S6S(b1-4)GlcNAc,-0.335
same,glycan array binding signal (z-score),Gal3S6S(b1-4)GlcNAc6S,-0.52
same,glycan array binding signal (z-score),Gal4S(b1-4)GlcNAc,-0.487
same,glycan array binding signal (z-score),Gal4S6S(b1-4)GlcNAc,-0.421
same,glycan array binding signal (z-score),Gal6P(b1-4)GlcNAc,-0.564
same,glycan array binding signal (z-score),Gal6S(b1-3)GlcNAc,-0.688
same,glycan array binding signal (z-score),Gal6S(b1-3)GlcNAc6S,-0.564
same,glycan array binding signal (z-score),Gal6S(b1-4)Glc,-0.326
same,glycan array binding signal (z-score),Gal6S(b1-4)Glc6S,-0.216
same,glycan array binding signal (z-score),Gal6S(b1-4)GlcNAc,-0.447
same,glycan array binding signal (z-score),Gal6S(b1-4)GlcNAc6S,-0.595
same,glycan array binding signal (z-score),GalNAc(a1-3)Gal,-0.142
same,glycan array binding signal (z-score),GalNAc(a1-3)GalNAc,-0.439
same,glycan array binding signal (z-score),[4],-0.308
same,glycan array binding signal (z-score),[5],-0.353
same,glycan array binding signal (z-score),GalNAc(b1-3)Gal,-0.135
same,glycan array binding signal (z-score),[6],-0.301
same,glycan array binding signal (z-score),[7],-0.295
same,glycan array binding signal (z-score),[8],-0.225
same,glycan array binding signal (z-score),GalNAc(b1-3)GalNAc,-0.186
same,glycan array binding signal (z-score),GalNAc(b1-3)GlcNAc,-0.192
same,glycan array binding signal (z-score),GalNAc(b1-4)Gal(b1-4)Glc,-0.262
same,glycan array binding signal (z-score),GalNAc(b1-4)GlcNAc,0.302
same,glycan array binding signal (z-score),[9],0.689
same,glycan array binding signal (z-score),[10],0.796
same,glycan array binding signal (z-score),[11],3.31
same,glycan array binding signal (z-score),GalNAc(b1-4)GlcNAc6S,2.18
same,glycan array binding signal (z-score),GalNAc(b1-6)GalNAc,-0.385
same,glycan array binding signal (z-score),GalNAc3S(b1-4)GlcNAc,-0.481
same,glycan array binding signal (z-score),GalNAc3S(b1-4)GlcNAc3S,-0.603
